Results published in the supplement of paper PMC11417369.
This is one part of the list.

test system: PfHDP1 homeodomain (GST-tagged); assay: gcPBM binding intensity (ln(normalized median fluorescence intensity)); higher = stronger DNA binding
In short: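 For binding intensity, the highest Masliner-normalised natural-log median intensity across replicate spots of either probe orientation was taken. Protein bound to the array was stained with Alexa488 anti-GST antibody and scanned at 488 nm. The protein, GST-tagged P. falciparum DNA-binding domains from E. coli at about 25 μg on average, had been applied for 1 h to an Agilent 4 × 180k array of primer-extended double-stranded 36-bp intergenic genomic probes and negative controls.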

First: ATGCGTTAATCTATATATATTATGTATAGATTTTCA [CACACA_negctrl_site1650]
Second: AACATATTTATGATGTGTACCTACATAATAGAATTT [XGTACX_site141]
The “gcPBM binding intensity (ln)” value of the first is higher: 6.23 for the first, 5.96 for the second.

Going from “TACATAATAACATGTACACACATTCTTCTATAAATG [CACACA_site4061]” to “ACATAATAAAAATGACGTACAATTTTTTTTTTTCAT [XGTACX_site8340]”, the “gcPBM binding intensity (ln)” value falls from 6.64 to 6.2.

Compared with “CATTAAAAAGAAAGTTCACACACATATATATGACGG [CACACA_site8836]”, “ACTACATAATATTAACGTACATATTATAATACTTGC [XGTACX_site954]” is lower in “gcPBM binding intensity (ln)” value: 6.91 for the first, 6.77 for the second.

Going from “ATATAACACATTAGTTGTACTATTTTTAATTGGTGA [XGTACX_site961]” to “TATATATATATGTGCACACCAATTGTATGTAATATA [CACACA_site3889]”, the “gcPBM binding intensity (ln)” value rises from 6.4 to 10.6.

First: TATTTAATTACATGAACACACATTATATATTTTTAA [CACACA_site5615]
Second: TTTATATTATTAGAAACACACATTAGATTAAAATTA [CACACA_site3286]
The “gcPBM binding intensity (ln)” value of the first is higher: 6.35 for the first, 6.21 for the second.

Compared with “TTCAAATTTCCACATACACACCTTGTAGATCTATAT [CACACA_site6270]”, “CAATGTTGTACATACACACACACAAAAAAAAAATAA [CACACA_site2407]” is lower in “gcPBM binding intensity (ln)” value: 6.93 for the first, 6.75 for the second.

First: ATAAAAAAACACACTCGTACACACATATTTTCTTTC [XGTACX_site6565]
Second: GATAATAATAAACAACCACACACAAAAAAACAAAAA [CACACA_site9074]
The “gcPBM binding intensity (ln)” value of the first is lower: 6.82 for the first, 7.01 for the second.

Going from “TGCTATAATTTATATACACACAAATATATACACATA [CACACA_site9356]” to TTACAATAAATTATAGTGCAATATTTTATTTAATAT, the “gcPBM binding intensity (ln)” value rises from 6.83 to 10.6.

Compared with “TAGCCCATATGGAATACACACTGAAAATAAAAAAAG [CACACA_site5799]”, “AAAAAAAAAAAAAAAAAAAAAAAAAAAAAAACATAT [GTGCAC_negctrl_site580]” is higher in “gcPBM binding intensity (ln)” value: 6.67 for the first, 7.44 for the second.

Compared with “ATGAATAATTAATGATGTACTTAAAAAAAAAAATAT [XGTACX_site6346]”, “ATATATTATATTGAATGTACATATATATATTATATA [XGTACX_site8445]” is higher in “gcPBM binding intensity (ln)” value: 6.41 for the first, 6.58 for the second.

Going from “GTTAATATCTTGAACAGTACTCTAAATATCTACATA [XGTACX_site5358]” to “ATAATATAATTTTGCAGTACCCAAAAAACAAAATAA [XGTACX_site4827]”, the “gcPBM binding intensity (ln)” value rises from 6.17 to 7.09.

Going from “AAAGTATAATAATACACACACTTTAAAAGTTAAATG [CACACA_site7550]” to “AATATGATATATATATGTACATATATATAATATAAT [XGTACX_site3072]”, the “gcPBM binding intensity (ln)” value rises from 6.57 to 6.67.

First: ATATAGGTAAAAAGTATACACACGTTGACACATTCT [CACACA_site1199]
Second: GCACATTTTTTTATCACACATATAATTACAATATAA [CACACA_site5585]
The “gcPBM binding intensity (ln)” value of the first is lower: 6.42 for the first, 6.95 for the second.

Compared with “TACGTATGCCTGTGATGTACATATATATATACATAC [XGTACX_site4728]”, “TTTCGGTTTTTTTTTATTTTTTTTTTTTTATTATTT [CACACA_negctrl_site335]” is lower in “gcPBM binding intensity (ln)” value: 7.04 for the first, 6.31 for the second.

Compared with “AAAAGATGCGCATACACACAGATGAATAACAAAAAA [CACACA_site6865]”, “TGACTATGTATATTTAGTACATAAAATCAATAATAT [XGTACX_site4082]” is lower in “gcPBM binding intensity (ln)” value: 8.07 for the first, 6.32 for the second.

Compared with “AAGGGTTGCCTGTGTAGTACATATATATATATATAT [XGTACX_site8555]”, AGGGAAAAAAAAAAAGTGCATTTGTATTAAATGAAT is lower in “gcPBM binding intensity (ln)” value: 9.24 for the first, 8.15 for the second.

Compared with “AAATATAAGAAAAAGGTGCTTTTTTTTTTTTTTTTT [GTGCAC_site9700]”, “GTAAACAAAATATTTTGTACATATTTTATATTATTT [XGTACX_site7837]” is lower in “gcPBM binding intensity (ln)” value: 6.57 for the first, 6.33 for the second.

Compared with “TCATTCATAAAAATAACACACAAAAAAAAAAAAAAA [CACACA_site1800]”, “AAATTATATTATTGAACACACGTTTGGTAATGTTTT [CACACA_site5469]” is lower in “gcPBM binding intensity (ln)” value: 6.3 for the first, 6 for the second.

Compared with “GGACATTTTTATAAGGTGCACGGTTTTGATATTACT [GTGCAC_site9892]”, “ATAATGATATATAGTACACACAAAAATGGAAGTAAA [CACACA_site7541]” is lower in “gcPBM binding intensity (ln)” value: 10.3 for the first, 7.04 for the second.

First: AACCACATACATATAACACACATATACAATATATAT [CACACA_site8607]
Second: TCATTATATCATGGTAGTACTCATTAATAATACGTA [XGTACX_site8701]
The “gcPBM binding intensity (ln)” value of the first is higher: 6.68 for the first, 6.48 for the second.

Going from “GTTAATAAAAATATATGTACATAATTATTATGAAAA [XGTACX_site3030]” to “AATATTATTTAGGAGCGTACGTTTTATTTACATATT [XGTACX_site5188]”, the “gcPBM binding intensity (ln)” value rises from 6.67 to 6.81.

Going from “TATATATTTTTTAAACCACACACAATATAGAGTATA [CACACA_site8106]” to “TTTTTTTTTTTAAAAAGTACACAATTAATTAATATA [XGTACX_site8494]”, the “gcPBM binding intensity (ln)” value falls from 6.79 to 6.41.

First: ATATTGTTTTATATAGAACACACATAAAAATATATA [CACACA_site8314]
Second: GGCATAAATATATGCACACACAAAAAAAAAAAAAAA [CACACA_site59]
The “gcPBM binding intensity (ln)” value of the first is lower: 6.53 for the first, 9.94 for the second.

Going from “GAAAGAATAAAATTTACACACATATATATATACATA [CACACA_site2250]” to “ATATATATATATATATGTACTTATTTGAATACTAAA [XGTACX_site2330]”, the “gcPBM binding intensity (ln)” value rises from 6.44 to 9.2.

Going from “AAAATAAGAAATAGATGTACTTATAAATAAATACAA [XGTACX_site4441]” to “TTATTGAAAAAAGAACAAAAAAAAAAAGAAAAATTA [XGTACX_negctrl_site438]”, the “gcPBM binding intensity (ln)” value rises from 5.62 to 6.1.

Compared with “TATAAACATTATAAATGTACAAATATATATATATAT [XGTACX_site3218]”, “GAAATTTCCCATATTACACACATACTATGATATATA [CACACA_site5987]” is lower in “gcPBM binding intensity (ln)” value: 9.09 for the first, 6.89 for the second.

First: TTTTTTATTTTTGCGTGTACATAATAATGAATCTTC [XGTACX_site8077]
Second: ATCTATAAATTTCCACGTACATATATATATATATAT [XGTACX_site4502]
The “gcPBM binding intensity (ln)” value of the first is lower: 6.58 for the first, 9.45 for the second.

Compared with “TTTTAAATATATGTGCTATTATATTAAGAGATGTAA [GTGCAC_negctrl_site560]”, “CCTCTTTTTATTCTCACACACGTTTATATATAAAGT [CACACA_site4992]” is higher in “gcPBM binding intensity (ln)” value: 6.44 for the first, 7.51 for the second.

Compared with “CATTAAATATATAAATGTACAAATATATTTTTCAAA [XGTACX_site4429]”, “TTAATGTAGAGAAAATGTACATTTTATTAAAACAAT [XGTACX_site6376]” is higher in “gcPBM binding intensity (ln)” value: 6.22 for the first, 6.51 for the second.

First: TTGTTCATATTTTTTATTGTGTTAATATTTATAAAA [GTGCAC_negctrl_site423]
Second: CCTATTTATAAATACACACACATATATAAATAAATA [CACACA_site5629]
The “gcPBM binding intensity (ln)” value of the first is lower: 6.83 for the first, 7.08 for the second.

Compared with “TATTTATAGATATATACACACATATTTATATTTATA [CACACA_site6441]”, “AAAAAGAAATCCAATACACACCTTCAAAATGGGTAT [CACACA_site4978]” is lower in “gcPBM binding intensity (ln)” value: 6.51 for the first, 6.3 for the second.

Compared with “AAAAAACTATTATGTGCATGCACAAGTCAGGTAAAT [TGCATGCA_site791]”, “ATAAAAGAATAAATAAAACACATATATATATATATA [XGTACX_negctrl_site31]” is lower in “gcPBM binding intensity (ln)” value: 11.3 for the first, 9.58 for the second.

First: ATATAAATCAAAAACGCACACATAAATATTTATATA [CACACA_site2442]
Second: TTTTTTTTTTTTTTGGTGCACATAGAAATTCTAAAA [GTGCAC_site9809]
The “gcPBM binding intensity (ln)” value of the first is lower: 7.19 for the first, 10.2 for the second.

First: TTATAAATGTATTTATGTACATATAAATATATATAA [XGTACX_site2970]
Second: AAAAGAAAATAAGAAACACACAAAAATATATAAAAA [CACACA_site3697]
The “gcPBM binding intensity (ln)” value of the first is lower: 6.2 for the first, 6.81 for the second.

First: TTCTTTGCTTTTCAAACACACAAAAGTTATTATATT [CACACA_site521]
Second: TTTAGTTTTTATATAGCACACATATTGTGATTATGT [CACACA_site8316]
The “gcPBM binding intensity (ln)” value of the first is lower: 6.74 for the first, 6.82 for the second.

First: AATTTATAAAAGAAGAGGACACATATAAATATAAAT [XGTACX_site59]
Second: TATATTAATGTTCATAGTACGTATGATTAGGAAAAA [XGTACX_site616]
The “gcPBM binding intensity (ln)” value of the first is lower: 6.8 for the first, 7.12 for the second.

Going from “ATATTCATATATTTACGTACATACATTTATATATTT [XGTACX_site7644]” to “ATTTAAAAAAAAACGGAATTTTTTTTTTTTTTAAAG [XGTACX_negctrl_site91]”, the “gcPBM binding intensity (ln)” value falls from 6.67 to 5.88.

First: ACATATATGTATAATACACACACTAATATATAATTG [CACACA_site1966]
Second: GGAAAGACAGTTCACAGTACCCAGGAAATCTGCGGA [XGTACX_site4933]
The “gcPBM binding intensity (ln)” value of the first is higher: 6.62 for the first, 5.86 for the second.

First: AATAATTAACAAAAAAAAAAAAAAAAAAAAAAAAAA [GTGCAC_negctrl_site255]
Second: TATAAATAAATATGTACACACATATATACCTTTCAT [CACACA_site7291]
The “gcPBM binding intensity (ln)” value of the first is lower: 6.21 for the first, 6.33 for the second.

Compared with “TATGTATTATATATTTGTACTCATTCTAATTCCTTC [XGTACX_site7294]”, “TATTAATGATAAGAATATTTTATATGATACATGCAT [CACACA_negctrl_site923]” is lower in “gcPBM binding intensity (ln)” value: 6.47 for the first, 6.08 for the second.

Compared with “TATCTTTATATATAGTGTACACATTAAACAAATCTC [XGTACX_site7381]”, “ACTAAAAAAATAAACACACAGATTTATATAATATAT [CACACA_site4884]” is lower in “gcPBM binding intensity (ln)” value: 6.71 for the first, 6.3 for the second.

Going from “TCTATACCTATTCTTACACACATATGTATAAATATA [CACACA_site6407]” to “TTGACAACTCTTTTCATACACACAAAAAAAAAAAAA [CACACA_site2362]”, the “gcPBM binding intensity (ln)” value falls from 6.98 to 6.32.

First: ACAAAATATATAGACACACAAACACAAATATGTTTT [CACACA_site3016]
Second: TAATACAGATTAAAAGGTACACTTATTTGGTATTAT [XGTACX_site4966]
The “gcPBM binding intensity (ln)” value of the first is higher: 6.43 for the first, 6.38 for the second.

First: TTAATATGAATTATTACATGCAACTAAATATATTTA [TGCATGCA_site490]
Second: TACAACCTTTAGACAAGTACAAGAATTATATGTGGC [XGTACX_site4581]
The “gcPBM binding intensity (ln)” value of the first is higher: 6.8 for the first, 6.73 for the second.

“TGTATATCACATGAGAGGTGGAGATGGGGATAAATA [CACACA_negctrl_site1148]” was tested, and the “gcPBM binding intensity (ln)” value was 6.52.
